Laboratory results from PubChem BioAssay AID485344 (National Center for Advancing Translational Sciences (NCATS), 2010).
Screen size: about 340,000 compounds; about 6,900 (2%) were called active. Cut-off read from the data, not from the text of the source: active = inhibition above about 30%; inactive = below that, where a call was filed. This is a selection; strong and weak results do not stand in their true shares. The source gives no active or inactive call for entries shown without one.

biological target: D(2) dopamine receptor (Homo sapiens) (UniProt P14416); assay: HTS Assay for Allosteric Antagonists of the Human D2 Dopamine Receptor: Primary Screen for Antagonists; conditions: HEK293 TREx D2 cells, calcium flux, dopamine EC80; at 10 µM; stronger effect = higher value; note: 0% is about no effect
UniProt P14416, sequence (P14416 whole entry, looked up): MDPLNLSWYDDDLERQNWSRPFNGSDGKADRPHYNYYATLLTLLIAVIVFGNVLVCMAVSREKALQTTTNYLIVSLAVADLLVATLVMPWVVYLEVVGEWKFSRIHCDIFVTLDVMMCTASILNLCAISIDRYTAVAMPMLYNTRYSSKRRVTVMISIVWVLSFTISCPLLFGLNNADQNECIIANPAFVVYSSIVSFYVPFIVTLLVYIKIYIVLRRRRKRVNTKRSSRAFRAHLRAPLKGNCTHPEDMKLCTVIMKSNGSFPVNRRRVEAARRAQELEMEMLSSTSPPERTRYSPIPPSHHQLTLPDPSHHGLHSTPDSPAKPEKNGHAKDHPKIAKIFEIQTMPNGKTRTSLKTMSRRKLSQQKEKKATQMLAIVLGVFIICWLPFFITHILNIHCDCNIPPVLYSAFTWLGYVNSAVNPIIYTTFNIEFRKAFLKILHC
From the text: NIH Chemical Genomics Center [NCGC] NIH Molecular Libraries Probe Centers Network [MLPCN] MLPCN Grant: NS064831-01 Assay Submitter (PI): David Sibley Dopamine receptors (DARs) are involved in the etiology and/or therapy of a number of neuropsychiatric and endocrine disorders. For instance, all receptor-based antiparkinsonian drugs work via stimulating the D2 DAR subtype whereas all FDA-approved antipsychotic agents are antagonists of this receptor. […] There are three different types of allosteric modulators that we are seeking, two of which will stimulate or augment receptor signaling, allosteric agonists and potentiators, while the third, allosteric antagonists, will attenuate receptor signaling. The present primary screening assay measures compound antagonism after an EC80 addition of dopamine by tracking calcium flux in a […], inducible Hek293 Trex D2 cell line.
Freshly passaged cells are plated in 1536 well black, clear bottom plates at a density of 4000 cells/well in 3 ul of complete media containing 1x tetracycline inducer. After an overnight incubation at 30 C in 5% CO2, cells are loaded with 2 ul of the no wash Calcium Assay Kit (ABD Bioquest) and incubated at room temperature for 30 to 90 minutes. Agonist read: A 10 cycle (1 second/cycle) baseline measurement is taken and then the FDSS online 1536 pintool delivers 23 nl of compound library (as well as dopamine controls) to the plate. The plate is measured for kinetically at 1 cycle/sec for 180 seconds. Following the 180 second read, 1 ul of an EC80 (negative modulation assay) is delivered by an onboard pipette head. Measurements are taken kinetically for an additional 180 seconds.

Going from `O=C(CSc1ncc(-c2ccc(Cl)cc2)[nH]1)Nc1ccccc1F` to `CC(C)c1ccc(NC(=O)c2cc(S(=O)(=O)N3CCc4ccccc4C3)ccc2F)cc1`, the inhibition rises from -3.91% to 6.1%.

Going from `Cc1ccc(S(=O)(=O)N2CCCC2C(=O)Nc2ccc(Br)cc2)cc1` (stereo not given) to `Cc1ccc(S(=O)(=O)N2CCCc3cc(NS(=O)(=O)c4ccccc4)ccc32)cc1`, the inhibition falls from 21.5% to 4.62%.

Compared with `CCOc1ccc(C(=O)c2cn(Cc3cccc(OC)c3)c3cc4c(cc3c2=O)OCO4)cc1`, `CCOc1ccc(NC(=O)CSc2nc3c([nH]c4ccccc43)c(=O)n2-c2cc(C)cc(C)c2)cc1` is higher in inhibition: -0.439% for the first, 6.2% for the second.

Compared with `O=C(C1CCCN(S(=O)(=O)c2cccc3nonc23)C1)N1CCN(c2cccc(C(F)(F)F)c2)CC1` (stereo not given), `CCn1c(C(=O)N2CCC(C(=O)N3CCN(c4ccc(OC)cc4)CC3)CC2)cc2sccc21` is higher in inhibition: -14.7% for the first, -5.93% for the second.

First: CCOC(=O)CNC(=O)Nc1cc(C(=O)NCc2ccc(C(C)C)cc2)ccc1N1CCCC1
Second: CCOC(=O)c1ccc(N2CCN(c3ccc(F)cc3)CC2)c(NC(=O)Nc2ccc(CC)cc2)c1
The inhibition of the first is higher: 10.6% for the first, 8.5% for the second.

First: Cc1cc(OCC(=O)Nc2sc3c(c2C#N)CCC(C)C3)ccc1Cl (stereo not given)
Second: CC(C)(C)C1CCc2c(sc(NC(=O)c3ccccc3F)c2C(=O)NCc2ccco2)C1 (stereo not given)
The inhibition of the first is higher: -3.11% for the first, -19% for the second.

Going from `Cc1ccc2[nH]c(=O)c3cc(C(=O)NCc4cccc(Cl)c4)sc3c2c1` to `COc1ccc(Cl)cc1N=C1NC(=O)CC(C(=O)Nc2ccccc2C(F)(F)F)S1` (stereo not given), the inhibition rises from 3.51% to 8.08%.

Compared with `Cc1cc(C)c(/C=C/c2onc(C)c2S(=O)(=O)N2CCC(C(=O)Nc3cccc(C)c3C)CC2)c(C)c1`, `Cc1cccc(NC(=O)CCn2nc(C)c3c(C)n(-c4ccccc4)nc3c2=O)c1C` is higher in inhibition: -13.1% for the first, 15.8% for the second.

First: COc1ccccc1-c1noc(CSc2nnc(-c3ccccc3)n2-c2ccc(C)c(C)c2)n1
Second: COc1ccc(NC(=O)CSc2nc3c(oc4ccccc43)c(=O)n2-c2ccccc2)cc1OC
The inhibition of the first is lower: -14.8% for the first, 9.3% for the second.

First: CCOc1ccc(C(=O)Nc2ccc(NC(=O)c3ccccc3)cc2)cc1Br
Second: CC(C)Oc1ccc(NC(=O)c2cc3ccccc3o2)cc1
The inhibition of the first is lower: 2.25% for the first, 27.8% for the second.

Going from `Cc1ccc(OCC(=O)N(Cc2nc(-c3ccccc3)no2)C(C)C)cc1C` to `CCCNC(=O)c1cnn2c(C(F)F)cc(-c3ccccc3)nc12`, the inhibition falls from 5.14% to -0.807%.

Compared with `COC(=O)c1ccc([C@H]2Nc3ccc(S(=O)(=O)Nc4ccc(F)cc4)cc3[C@H]3C=CC[C@H]32)cc1`, `COc1cccc(-c2ccc3c(N)c(C(=O)c4ccc(F)cc4)sc3n2)c1` is lower in inhibition: 2.78% for the first, -7.78% for the second.

Going from `CN(C)c1ncc(C(=O)NCc2ccccc2Cl)cn1` to `CN(Cc1ccccc1)S(=O)(=O)c1nnc(NC(=O)c2ccccc2Cl)s1`, the inhibition rises from -20.4% to 9.33%.

Compared with `COc1ccc(S(=O)(=O)NCc2ccc3c(c2)CCN3C(C)=O)cc1OC`, `COc1ccc(Nc2ccc3cc(S(=O)(=O)N4CCCC4)ccc3n2)cc1OC` is lower in inhibition: 8.22% for the first, -1.85% for the second.

Going from `Cc1ccc(NC(=O)CCS(=O)(=O)c2ccc3nc(C)sc3c2)c(C)c1` to `COc1ccc(S(=O)(=O)N(CC(=O)Nc2cc(C)cc(C)c2)c2ccc(Cl)cc2)cc1`, the inhibition falls from 0.599% to -14.5%.

First: CCOc1ccc(CN2C(=O)c3ccccc3Sc3ccc(C(=O)NCCCN4CCOCC4)cc32)cc1
Second: CN1CCN(C(=O)c2ccc3c(c2)N(Cc2ccc(F)cc2)C(=O)c2ccccc2S3=O)CC1 (stereo not given)
The inhibition of the first is lower: -14.4% for the first, 1.78% for the second.

Compared with `Cc1nn(-c2ccc(N3CCCC3)nn2)c(C)c1CCC(=O)Nc1ccccc1`, `CC(=O)c1cccc(NC(=O)CCc2nc3cccnc3n2Cc2cccs2)c1` is higher in inhibition: 4.1% for the first, 4.64% for the second.

Going from `CCCCOC(=O)c1ccc(NC2=NS(=O)(=O)c3ccccc32)cc1` to `COc1ccc(C2=NS(=O)(=O)N(C)C(C(=O)Nc3ccc(OC(F)(F)F)cc3)=C2)cc1`, the inhibition rises from 9% to 13%.

Going from `Cc1ccc(-c2nc3n(n2)C(=O)CC(c2ccc(C)cc2)S3)cc1` (stereo not given) to `Fc1ccc(-c2nc3c4c(-c5ccccc5)c(-c5ccccc5)oc4ncn3n2)cc1`, the inhibition rises from -4.17% to 8.6%.

Going from `Cc1ccc(NS(=O)(=O)c2c(C)nc3sccn3c2=O)c(Cl)c1` to `CCOC(=O)c1c(C)oc2c1cc(NS(=O)(=O)c1ccc(C)cc1)c1ccccc12`, the inhibition rises from -1.77% to 6.49%.

Compared with `Cc1ccc(-n2c(=O)c3c(c4cc(C)ccc4n3C)n(CC(=O)NCC3CCCO3)c2=O)cc1` (stereo not given), `CC1CCN(S(=O)(=O)c2ccc3c(ccc(=O)n3CC(=O)NCc3ccc(Cl)cc3)c2)CC1` is higher in inhibition: -8.83% for the first, -0.474% for the second.

Compared with `COc1cc(Cl)c(NC(=O)CC(C)S(=O)(=O)c2cc3c(cc2C)NC(=O)CO3)c(OC)c1` (stereo not given), `COc1ccc(-c2nc3scc(CCNS(=O)(=O)c4c(C)cc(C)cc4C)n3n2)cc1OC` is higher in inhibition: -6.5% for the first, -2.65% for the second.

First: Cc1ccc(NC(=O)CSc2nncn3c2cc2sccc23)cc1F
Second: Cc1ccc(NC(=O)c2cc(S(=O)(=O)N3CCCCCC3)ccc2F)cc1F
The inhibition of the first is higher: -5.74% for the first, -9.92% for the second.

First: O=C(Nc1ccc(Cl)c(-c2nc3ccccc3o2)c1)c1cccc2c(Cl)cccc12
Second: Cc1cc(C)cc(C(=O)Nc2cccc(-c3nc4ncccc4o3)c2C)c1
The inhibition of the first is lower: -6.24% for the first, -5.58% for the second.

Compared with `Cc1ccc(CSC2=Nc3ccccc3C3=NC(CCC(=O)NCc4cccs4)C(=O)N23)c(C)c1` (stereo not given), `COc1ccccc1CNC(=O)CCCCn1c(=O)c2ccccc2n(Cc2ccccc2C)c1=O` is higher in inhibition: -3.91% for the first, 20.9% for the second.

Compared with `CCC(Oc1ccccc1)C(=O)N1CCN(Cc2cc(=O)n3nc(-c4cccc(C)c4)sc3n2)CC1` (stereo not given), `O=C(CSc1nc(-c2ccccc2)no1)N1CCN(c2ccccc2)CC1` is higher in inhibition: -0.404% for the first, 1.1% for the second.

Compared with `CCOC(=O)c1ccc(N2CCN(c3cc(Cl)ccc3C)CC2)c(NC(=O)Nc2ccc(OCC)cc2)c1`, `Cc1cc(N2CCN(C)CC2)nc2ccc(NC(=O)Nc3ccc(F)cc3F)cc12` is higher in inhibition: 6.27% for the first, 14.6% for the second.

Going from `CC(NC(=O)CCCN1C(=O)CCn2nc(-c3cn(C)c4ccccc34)cc21)c1ccccc1` (stereo not given) to `O=C(NCCn1cc(SCc2ccccc2)c2ccccc21)c1cccs1`, the inhibition falls from 1.33% to -3.76%.

First: CCOC(=O)c1c(C)oc2nc(C)nc(NCC3CCN(Cc4ccc(F)cc4)CC3)c12
Second: CC(C)(C)OC(=O)N1CCC(c2c(C(=O)NCc3ccccc3)cnn2-c2ccc(F)cc2)CC1
The inhibition of the first is lower: -23.7% for the first, -2.39% for the second.

Going from `COc1ccc(CNc2ncnc3c2cnn3-c2ccc(Cl)cc2)cc1` to `CCOc1ccc(Nc2nc3c(S(=O)(=O)c4ccc(CC)cc4)nnn3c3ccc(Cl)cc23)cc1`, the inhibition falls from 11.5% to -1.29%.

Compared with `CCOC(=O)c1cc2c(=O)n3ccccc3nc2n(CCOC)c1=NC(=O)c1cc2ccccc2o1`, `CCc1ccccc1N1CC(c2nc3ccccc3n2CCOc2ccc(Cl)c(C)c2)CC1=O` (stereo not given) is higher in inhibition: 15.6% for the first, 24.5% for the second.

First: c1ccc(N2CCN(Cc3nnc(-c4ccc5c(c4)OCO5)o3)CC2)cc1
Second: O=C(COc1cccc(Cl)c1)N1CCC(c2nc3ccccc3o2)CC1
The inhibition of the first is lower: 1.94% for the first, 15.1% for the second.

First: CCCc1cc(=O)[nH]c(Nc2ccccc2O)n1
Second: CCOc1ccccc1NC(=O)c1cc(S(=O)(=O)N2CCOCC2)cn1C
The inhibition of the first is lower: -4.28% for the first, 10.1% for the second.

Compared with `CCc1nn2c(=O)cc(COC(=O)c3ccc4c(c3)OCO4)nc2s1`, `CCN1CCc2c(sc(-n3cccc3)c2C(C)NC(=O)Nc2cc(Cl)c(OC)cc2OC)C1` (stereo not given) is higher in inhibition: -6.48% for the first, 19.1% for the second.

First: CC(=O)c1c(C)n(-c2ccc(Cl)cc2)c2ccc(OC(=O)COc3ccccc3)cc12
Second: Cc1sc2c(c1C)c(=O)n(Cc1ccccc1)c(=O)n2CC(=O)N(C)c1ccccc1
The inhibition of the first is lower: -0.984% for the first, 0.891% for the second.

Compared with `COc1ccc(CCNc2nc3ccc(C)cc3n3cnnc23)cc1OC`, `COc1ccc(CCNc2oc(COc3cccc(C)c3)nc2C#N)cc1OC` is lower in inhibition: 16.8% for the first, 8.31% for the second.

Compared with `O=C(c1cccn1-c1nnc(N2CCCCC2)s1)N1CCN(c2ccc(Cl)cc2)CC1`, `O=C(NC1CC(=O)N(c2ccc(Cl)cc2)C1)C1CCCC1` (stereo not given) is higher in inhibition: 9.51% for the first, 15.7% for the second.

Going from `CCOC(=O)CSc1nc(-c2ccc(F)cc2)cc(C(F)(F)F)c1C#N` to `CC(C)Oc1ccc(CNC(=O)c2ccc3nc(C(C)C)oc3c2)cc1`, the inhibition falls from 15% to -15.1%.

Going from `CCNc1nc(NC(C)(C)C)nc(Oc2ccc(=O)n(-c3ccccc3)n2)n1` to `COc1ccc(-c2nc(Cn3c(=O)cc(-c4ccccc4)c4c(C)nn(C)c43)c(C)o2)cc1OC`, the inhibition rises from 4.08% to 17.7%.

Going from `CN(C)c1ccc(C(=O)Nc2c(C(=O)NC(C)(C)C)oc3ccccc23)cc1` to `CCC(=O)N1c2ccccc2C(C)(c2ccccc2)CC1(C)C` (stereo not given), the inhibition falls from 12.1% to -23.9%.

Going from `Cc1cc(C)cc(NC(=O)C(CC(C)C)NC(=O)C2CCCCC2)c1` (stereo not given) to `CCC(C)NC(=O)c1ccc2c(c1)nc1n2CCCCC1` (stereo not given), the inhibition falls from 8.34% to 1.68%.

With `CC1(C)CC(=O)c2cc(-c3nc(-c4ccc(Cl)cc4)cs3)c(=O)[nH]c2C1` the inhibition was 11.7%.

`CCn1c(SCC(=O)N/N=C/c2ccc(C)o2)nnc1-c1ccccc1` was tested, and the inhibition was active: 56.8%.
`COc1ccc(C(CNC(=O)COc2ccc(Cl)c(C)c2)N2CCCCC2)cc1` (stereo not given) was tested, and the inhibition was active: 36.5%.
In the case of `Cc1ccc(S(=O)(=O)N(C)C)cc1NC(=S)NC12CC3CC(CC(C3)C1)C2`, the inhibition is reported as active: 77.8%.
For `COc1ccccc1C(=O)Nc1ccnn1C1CCN(CCCc2ccccc2)CC1`, the inhibition was active: 32.8%.
For `COc1ccc(CNc2nc(NCc3ccc(OC)cc3)n(C(=O)c3ccccc3[N+](=O)[O-])n2)cc1`, the inhibition was active: 31.2%.
With `COc1ccccc1NS(=O)(=O)c1ccc(C)c(C(=O)NC2CCN(Cc3ccccc3)CC2)c1` the inhibition was active: 76.6%.
In the case of `O=C1C2CCCCN2C(=O)N1CCCCN1CCN(c2cccc(Br)c2)CC1` (stereo not given), the inhibition is reported as active: 86.6%.
For `O=C(O)/C(=C\c1cccs1)Sc1nnc(-c2ccc(F)cc2)o1`, the inhibition was active: 35%.
For `CC(C)c1ccc(NC(=O)Cn2ncc3ccccc32)cc1`, the inhibition was active: 32.4%.
For `O=C(CSc1nc2ccc(Cl)cc2[nH]1)NCCc1ccccc1`, the inhibition was active: 39.4%.
With `c1ccc(CC2CCN(Cc3ccccn3)CC2)cc1` the inhibition was active: 30.2%.
With `CSCCC(NC(=O)c1ccco1)C(=O)N1CCN(C(c2ccccc2)c2ccccc2)CC1` (stereo not given) the inhibition was active: 34.4%.
